According to PMC4336329 (PLoS ONE, 2015):
Out of some 310,000 compounds screened, about 14,000 (4.5%) showed an effect of 50% or more. Effects have a minus sign here. The list shows a part of the results.

Each molecule was assayed against human ether-à-go-go-related gene (hERG) potassium channel (human, UniProt Q12809) (assay: primary screen, population patch clamp on CHO cells stably expressing hERG).
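Note: peak tail current of the secondary pulse compared with the same well before compound.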

Sequence of human ether-à-go-go-related gene (hERG) potassium channel (Q12809 whole entry, looked up): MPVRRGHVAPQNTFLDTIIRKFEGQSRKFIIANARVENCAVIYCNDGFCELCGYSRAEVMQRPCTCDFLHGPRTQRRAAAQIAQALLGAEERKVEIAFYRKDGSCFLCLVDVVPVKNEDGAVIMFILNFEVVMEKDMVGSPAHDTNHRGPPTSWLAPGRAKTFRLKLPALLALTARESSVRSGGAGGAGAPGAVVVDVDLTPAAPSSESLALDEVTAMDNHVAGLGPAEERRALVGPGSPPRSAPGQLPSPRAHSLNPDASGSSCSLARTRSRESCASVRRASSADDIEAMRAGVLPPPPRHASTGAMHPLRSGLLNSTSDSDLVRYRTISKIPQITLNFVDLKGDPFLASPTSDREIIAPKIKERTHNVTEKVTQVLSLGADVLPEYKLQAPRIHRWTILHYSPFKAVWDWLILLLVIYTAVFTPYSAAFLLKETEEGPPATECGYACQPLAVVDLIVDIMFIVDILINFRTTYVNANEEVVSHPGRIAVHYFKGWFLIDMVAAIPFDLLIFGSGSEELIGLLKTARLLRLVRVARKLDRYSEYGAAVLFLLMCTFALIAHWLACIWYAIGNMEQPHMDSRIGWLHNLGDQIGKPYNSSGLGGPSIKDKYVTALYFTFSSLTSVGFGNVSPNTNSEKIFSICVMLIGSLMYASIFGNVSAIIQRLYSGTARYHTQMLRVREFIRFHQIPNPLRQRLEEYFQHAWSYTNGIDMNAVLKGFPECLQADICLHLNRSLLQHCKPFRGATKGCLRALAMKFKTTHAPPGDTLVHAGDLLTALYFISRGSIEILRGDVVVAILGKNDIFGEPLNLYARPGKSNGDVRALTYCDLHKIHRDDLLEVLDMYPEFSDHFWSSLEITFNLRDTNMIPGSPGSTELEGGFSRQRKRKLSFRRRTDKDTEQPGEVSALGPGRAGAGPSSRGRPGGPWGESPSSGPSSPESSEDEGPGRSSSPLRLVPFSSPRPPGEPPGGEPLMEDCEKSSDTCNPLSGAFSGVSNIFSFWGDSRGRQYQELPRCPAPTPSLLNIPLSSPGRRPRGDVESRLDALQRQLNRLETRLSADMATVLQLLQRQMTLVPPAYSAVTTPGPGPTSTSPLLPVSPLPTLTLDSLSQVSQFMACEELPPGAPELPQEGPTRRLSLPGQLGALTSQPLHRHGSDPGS

| SMILES | hERG current change (%, negative = inhibition) at 10uM |
| --- | --- |
| CC(C)CNC(=O)C1CCN(Cc2ccc(OCc3ccccc3)cc2)CC1.O=C(O)C(=O)O | -77.1% |
| Clc1ccc(N/N=C/c2ccncc2)cc1Cl | 30.5% |
| O=C(NC(=S)NCc1ccccc1)c1ccc2c(c1)OCO2 | -8.81% |
| CCOC(=O)N1CCC(NC(=O)CCc2ccccc2)CC1 | 2.99% |
| Cc1cccc(NC(=O)N2CCCC2C(=O)NCc2cccs2)c1 (stereo not drawn) | -3.65% |
| COc1cccc(OC)c1C(=O)Nc1cccc(-c2nc3ccccc3[nH]2)c1 | 2.01% |
| CC1CCOC2(O1)C(=O)Nc1ccccc12 (stereo not drawn) | 16.1% |
| Cn1c(=O)c(C(=O)CN2CCc3ccccc32)c(N)n(Cc2ccccc2)c1=O | -15.7% |
| Cc1cc([N+](=O)[O-])ccc1-c1ccc(/C=N/NC(=O)c2ccc(Br)o2)o1 | -8.16% |
| CCOc1cccc2cc(C(=O)NCc3ccc(OC)cc3)c(=N)oc12 | 8.01% |
| CCOC(=O)[C@@H]1[C@H]2COc3cc(OC)ccc3[C@@H]2N2C(=O)N(c3ccc(F)cc3)C(=O)[C@]12C | 0.293% |
| Cc1cc(NC(=O)COC(=O)COc2cccc3c2OC(C)(C)C3)no1 | 14% |
| COc1ccc(CC(=O)Nc2nnc(C(C)C)s2)cc1OC | 0.877% |
| CCN1CC(CN(C)Cc2nc(-c3ccc(OC)c4ccccc34)oc2C)CC1=O (stereo not drawn) | -37.2% |
| CCCCOC(=O)C1=C(C)Nc2ncnn2C1c1ccc(OC)c(OC)c1 (stereo not drawn) | -21.5% |
| COc1ccc2cc(/C=N/O)c(Cl)nc2c1 | 13.2% |
| O=C1NC(=O)N(c2ccccc2)C(=O)/C1=C/c1ccoc1 | 16.7% |
| Cc1nn(-c2ccccc2)c(C)c1C(=O)OCC(=O)N1c2ccccc2NC(=O)C1(C)C | -8.43% |
| CN1CCN(c2nc3c(c(=O)n(C)c(=O)n3C)n2Cc2cccc3ccccc23)CC1 | -5.1% |
| O=C(CCC(=O)N(CC(=O)NC1CCCCC1)c1ccccc1F)Nc1nccs1 | 9.16% |
| O=C1NC(Cc2c[nH]c3ccccc23)C(=O)N1c1ccc(F)cc1 (stereo not drawn) | 12.4% |
| COc1cccc(N(C(=O)c2nc3nccc(C)n3n2)c2nc3ccccc3s2)c1 | -32% |
| O=S(=O)(Nn1cnnc1)c1ccccc1Cl | 16.1% |
| Cc1ccc(-n2c(-c3cc(-c4ccco4)[nH]n3)n[nH]c2=S)c(Br)c1 | 10.3% |
